Test results taken from the supplement of paper PMC3334620.
The full ranking holds about 33,000 sequences; the median of “E-score (-0.5 to 0.5)” is about -0.035, and the highest 2% start at about 0.35. This is one part of the list.

Molecular target: T1, Pdr3 (UniProt P33200)
T1 sequence: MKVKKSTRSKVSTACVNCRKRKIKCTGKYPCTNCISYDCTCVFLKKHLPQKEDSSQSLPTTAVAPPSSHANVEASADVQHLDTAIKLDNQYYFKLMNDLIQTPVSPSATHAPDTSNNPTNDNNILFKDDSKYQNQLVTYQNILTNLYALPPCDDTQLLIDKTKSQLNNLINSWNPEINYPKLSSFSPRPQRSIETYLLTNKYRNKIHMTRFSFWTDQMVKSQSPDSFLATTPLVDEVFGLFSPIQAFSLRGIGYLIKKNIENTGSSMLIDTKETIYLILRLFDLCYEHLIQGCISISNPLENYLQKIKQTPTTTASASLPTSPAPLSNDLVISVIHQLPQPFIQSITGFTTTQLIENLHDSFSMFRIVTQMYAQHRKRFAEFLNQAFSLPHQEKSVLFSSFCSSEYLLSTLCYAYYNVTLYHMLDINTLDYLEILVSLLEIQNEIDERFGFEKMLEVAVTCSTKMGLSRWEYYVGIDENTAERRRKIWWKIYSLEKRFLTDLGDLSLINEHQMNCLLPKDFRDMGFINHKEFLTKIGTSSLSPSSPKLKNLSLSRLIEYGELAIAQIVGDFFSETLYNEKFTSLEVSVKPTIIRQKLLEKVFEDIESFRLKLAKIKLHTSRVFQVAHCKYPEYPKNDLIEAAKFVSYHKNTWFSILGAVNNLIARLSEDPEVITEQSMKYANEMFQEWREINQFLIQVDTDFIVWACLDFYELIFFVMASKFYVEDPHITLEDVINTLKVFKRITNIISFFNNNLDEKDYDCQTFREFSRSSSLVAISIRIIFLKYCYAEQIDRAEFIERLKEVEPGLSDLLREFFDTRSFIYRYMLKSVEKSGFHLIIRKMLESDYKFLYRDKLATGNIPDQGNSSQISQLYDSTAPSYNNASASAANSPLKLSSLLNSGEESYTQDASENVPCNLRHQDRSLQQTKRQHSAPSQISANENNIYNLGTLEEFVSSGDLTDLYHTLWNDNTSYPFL
Test: PBM E-score (8-mer binding enrichment) (E-score (-0.5 to 0.5)); higher = stronger / more preferred TF binding; most listed sequences are background and not binding sites
Settings: protein concentration: 200 nM; construct: GST-full length
Experimental: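 Universal 'all 10-mer' protein binding microarrays (Agilent AMADID 015681) probed with GST-tagged S. cerevisiae TFs (full-length or DBD) made by in vitro transcription/translation (PURExpress), about 100-200 nM. Bound TF was detected with fluorescent anti-GST. Each ungapped 8-mer (which stands for itself and its reverse complement) is scored by the PBM enrichment score (E-score), a modified Wilcoxon-Mann-Whitney statistic from -0.5 to +0.5, computed with the Universal PBM Analysis Suite. Scale: above 0.35 generally sequence-specific binding.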

Sequence	PBM E-score
TCCGTAAA	0.346
GTAGAGCA	-0.269
ACTCTGGG	-0.086
AGCGCTCG	0.0716
TCTGACCA	-0.0719
CCTCGCAC	0.00281
GCGGCGAC	0.285
ACAACCAC	-0.0524
CCACCGGA	0.428
ATCATTGC	-0.168
ATGGATTA	-0.209
ACATGGCT	-0.135
CCTCATAA	-0.171
AGTTGGTG	0.00428
AATTGGGT	0.117
GAGAGATC	0.00988
TCGATGCA	-0.107
AAATCGAC	0.0112
AAACGCTC	-0.141
CGTAGCAC	-0.141
ATCGCCCA	-0.126
CTGACGTC	-0.141
AGACAAGC	-0.0931
CTTCGGAC	0.283
TGATACCA	0.0811

Sequence	PBM E-score
CTGGGATC	0.0126
GCCCGGAA	0.459
CAGAATAG	-0.0833
ACGTCCTG	-0.164
CATTATAC	0.0592
CTCATTCA	-0.0959
GCGTTGGA	-0.0194
ATGAGCCC	-0.171
CCAGCCTC	-0.253
CTTAAGAA	-0.0351
AAACGGAC	0.189
GAGCCTGC	0.0746
TAAAGCCA	-0.223
CCAAGTCC	-0.065
TCATGTCA	-0.122
AAGGCGCC	0.12
CCAGTGAG	-0.184
CCTGTCCA	-0.259
AATCGTCC	0.187
CTAACATC	0.0252
ACAAGGCT	-0.315
CCACCGCG	0.302
TACGTCGA	-0.124
TACTCCGA	0.296
GGGGTTTA	-0.12

Sequence	PBM E-score
ACCCTACT	-0.148
AAGGGGCA	-0.119
ATTATGGA	0.00094
AAATGGGT	0.111
CTGATCTC	0.042
CAAATCTC	0.0357
GCACAACC	-0.00027
CAGTTGCC	-0.0572
CAAGCTGA	0.0752
CTTCCTTA	-0.13
CCCTGTGC	-0.139
GATGTTGA	-0.143
AGACAGGA	-0.00086
CCGGGGGA	0.311
GAGGCATC	-0.163
ATCGCTGC	0.113
ATGCAATG	-0.159
GAAACGCC	0.187
AGTTTCGG	0.225
TGCAGCAA	-0.104
AGTATAAG	0.052
CGACAGTC	-0.24
CGAGAGTA	0.197
AGCAGCTG	-0.0576
AAACCGTT	-0.0215

Sequence	PBM E-score
GTAGGCGA	-0.0578
GTAGCCAA	-0.161
CCAGAGAG	-0.216
CGCTGGCC	-0.0818
AGGATGGC	0.0452
ACACTCCG	0.204
CAGAGTGA	-0.0887
AACTCGAT	0.0479
CTCATTGA	-0.188
AAGACCAC	-0.332
CAGTGTGC	-0.225
ATAAGATA	0.0912
ACAACTCA	-0.00409
CCAGACGG	0.0376
CGATGCCC	-0.13
ATTGGAGA	-0.0772
CGGTGCGA	-0.0161
AATTGGAA	0.0211
AATCACCG	0.0766
AATAGGAA	-0.111
TGCCGAAA	0.118
CCGCTATA	0.155
AATTCGAT	0.0319
GTACTCAA	0.0452
ACGTGGGA	-0.234

Sequence	PBM E-score
AGGCTATC	-0.0213
AGAGGTTA	-0.0967
GGGGGTAA	-0.255
AAGTTAGT	-0.0202
ACAGGGTA	-0.12
GGGGGGGA	-0.311
AAGTAACG	0.0311
GATGAGGA	-0.182
GGATTGAA	0.105
AGGCGTTC	-0.111
ATTCGAGC	-0.133
TATAGACA	-0.152
GTATGAAA	0.0233
CCCCTGCC	-0.0684
AACAGGGT	-0.0562
TCACATGA	-0.231
GAATACGA	0.0256
GGGGACAA	0.17
AACTACTG	0.025
CACGAGTA	-0.0205
ATGGATAG	-0.0286
ATAGACAA	0.0285
AGTTGCGC	0.13
ACCCCCCC	-0.401
ACCCCGGC	0.153

Sequence	PBM E-score
CTCAAGTA	-0.327
AGGCCAGC	-0.149
GATAACGC	0.155
CAGATACA	-0.0526
CGATAACG	-0.00956
ACCAAAAT	0.0565
CATGCATC	0.205
CGCTGCCA	-0.0872
GTCTTTGA	-0.253
CCACGATC	-0.0143
ACGTTTAT	-0.133
AGCAGACG	0.016
TAGGTACA	-0.297
CAACATCA	0.0147
CCTGCGGA	0.259
CCCAGAAA	0.0174
GGGCAAAC	0.0305
TAGCCGGA	0.372
ACGTGTGG	-0.181
CTCGGCAC	0.292
CGTTCTGC	0.189
ACCAAGCC	-0.208
AGTTGTGG	0.0126
AAGGCTAC	-0.267
CCAAGCTA	-0.257

Sequence	PBM E-score
AAATAGAG	-0.00426
CGGGAACA	0.358
AACGACAG	-0.162
GACGCCAA	-0.183
GAAGAGTA	-0.0638
AAACCGCT	-0.0883
ACATGGTC	-0.107
CCTGAGCC	-0.246
AGTTTAAT	0.0358
TCTTGGCA	-0.179
AATCTAAG	-0.105
AAACGAGC	-0.255
ACACGTCT	-0.195
ATTCACCA	-0.0576
CTTGTACA	-0.182
CTACACCA	-0.218
CCAACATC	0.174
CAGATTGA	0.0242
CAATAGTG	0.0261
GGTGGAGA	-0.137
CTGGTGAC	-0.0564
GGAAAGCA	0.127
